TGI and GI50 data for 87 compounds are collected here from PubChem BioAssay (NCI).

This test concerns NCI-H322M lung. Nature of the test: NCI anticancer screen, dose series, 48 h.

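Growth conditions: 96-well plates. Treatment: test compound, 48 hours, 5 concentrations. Analysis: linear interpolation between bracketing concentrations; unreached endpoints set to highest concentration. GI50 marks 50% less growth. TGI marks complete inhibition of growth.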

`C=C(C)[C@@H]1CC[C@]2(C(=O)O)CC[C@]3(C)[C@H](CCC4[C@@]5(C)CC[C@H](C(=O)/C=C/c6ccc(O)c(O)c6)C(C)(C)[C@@H]5CC[C@]43C)[C@@H]12` (stereo not given in full) showed a TGI of 27.1 µM.

Turning to `Cc1ccc(C(C)C)cc1NC(=O)Nc1ccc([N+](=O)[O-])cc1`, the GI50 is 3.2 µM and the TGI is 12.7 µM.

With `COc1cccc(C2NC(=S)NC(C)=C2C(=O)Nc2ccc(Cl)c(Cl)c2)c1` (stereo not given), the GI50 was 10.8 µM and the TGI turned out to be 25.8 µM.

For `O=C(Nc1cccc(-n2cc(-c3ccncc3)c(-c3ccc(O)c(Cl)c3)n2)c1)c1cccc(C(F)(F)F)c1`, the GI50 was 9.62 µM and the TGI was above 100 µM.

Regarding `CCOP(=O)(OCC)/C(C#N)=C/c1cccn1Cc1ccccc1`, the TGI was above 100 µM.

`CSC1=NCC2(S1)c1ccccc1N(C(=O)OC(C)(C)C)C2N1CCCCC1` (stereo not given): the GI50 was above 100 µM and the TGI was above 100 µM.

`CC(C)(C)OC(=O)n1cc(C2CN(O)C(=O)C23CCC(=O)N3Cc2ccccc2)c2ccccc21` (stereo not given) registered a TGI above 100 µM.

In turn, `O=C1CN(/N=C/c2ccc(-c3ccc(F)cc3)o2)C(=O)N1` yielded a TGI above 100 µM.

In turn, `CCOP(=O)(OCC)C(C)(CC)NC(=O)C(C(F)(F)F)C(F)(F)F` (stereo not given) yielded a TGI above 100 µM.

Regarding `COC(OC)c1cc2c(cc1C(=O)[C@@]13CCC[C@@H]1NC(=O)O3)OCO2`, the TGI was above 100 µM.

Consider `CCOC(=O)C(=O)C(=O)NN(C)C1=NCCN1`, for which the TGI is above 100 µM.

Take `Cc1cc(Cl)ccc1Nc1nc(C(F)(F)F)ccc1C(=O)N1CCN(c2cccc(Cl)c2)CC1`: the GI50 was above 100 µM and the TGI is above 100 µM.

Consider `CS(=O)(=O)NC12CCC(c3ccccc31)c1ccccc12`, for which the TGI is above 100 µM.

For the compound `COc1cc(NC(=O)Nc2cnc(Nc3ccc(N4CCOCC4)cc3)nc2Oc2cccc(OC)c2)cc(OC)c1`, the GI50 was 1.79 µM and the TGI worked out at 9.44 µM.

Take `N#Cc1nc(C#N)n(C(=O)c2ccccc2)c1NC(=O)c1ccccc1`: the TGI is above 100 µM.

Compound `C=C1C(=O)O[C@H]2[C@H]3O[C@@H](C[C@@H]12)[C@](C)(O)CC[C@@H]1O[C@@]1(C)CCC[C@H]3C` displayed a TGI above 100 µM.

In the case of `CCC(CC(C)C)Nc1ccc(NC(CC)CC(C)C)cc1` (stereo not given), the GI50 was 34.8 µM and the TGI was above 100 µM.

In the case of `NC1=NCC(CN2CCCC2)O1` (stereo not given), the TGI is above 100 µM.

`COC(=O)C1=C(O)C(C(=O)OC)[C@]2(O)[C@H](C(=O)OC)[C@H]1C[C@@H](c1ccc([N+](=O)[O-])cc1)[C@H]2C(=O)OC` (stereo not given in full) displayed a TGI of 68.8 µM.

`CC(=O)C1C(=O)N(C(C)C)C[C@@H]2CCC(=O)C[C@H]12` (stereo not given in full) had a TGI above 100 µM.

On to `Nc1[nH]c(=O)ncc1CO`, for which the GI50 was above 100 µM and the TGI was above 100 µM.

Regarding `CCOc1cc(-c2ccc[nH]2)[nH]c1/C=C1\N=C(C)C(C(=O)OC)=C1C`, the GI50 is 0.582 µM and the TGI came to 2.74 µM.

Take `COc1ccc(S(=O)(=O)N(C)CC(=O)O)cc1`: the TGI is above 100 µM.

Regarding `COc1cc2cc3c4c(cc(OC)c(OC)c4c2cc1OC)CCN3C(=O)CCC(=O)NCCCN(C)C`, the TGI is above 100 µM.

In turn, `CCOP(=O)(Nc1ccc2oc(=O)c3ccccc3c2c1)OCC` registered a TGI above 100 µM.

On to `COC1(OC)c2no[n+]([O-])c2C(OC)(OC)c2c1no[n+]2[O-]`, for which the TGI came out at 31 µM.

As for `COc1ccc2nc3n(c2c1)CCc1cc(OC)c(OC)cc1-3`, the TGI is above 100 µM.

Regarding `O=C(Nc1ccccc1C(=O)N/N=C(\c1ccccc1)c1ccccn1)c1ccc(F)cc1`, the GI50 was 0.206 µM and the TGI was above 100 µM.

For `CC(=O)Nc1cc(Nc2cc(=O)[nH]c(=O)[nH]2)ccc1C`, the TGI is above 100 µM.

Turning to `Oc1ccc(Cl)cc1Cc1cc(Cl)ccc1O`, the GI50 was 2.75 µM and the TGI came out at 9.76 µM.

Turning to `c1ccc(-c2nnn(CCN3CCCCC3)n2)cc1`, the TGI is above 100 µM.

The compound `C[N+](C)(C)CC1CCCC(C[N+](C)(C)C)C1O` (stereo not given) returned a TGI above 100 µM.

Regarding `O=c1[nH]c2ccccc2n1-c1n[nH]c2ccccc12`, the GI50 is 56.5 µM and the TGI was above 100 µM.

Take `NS(=O)(=O)c1ccc(NNc2c3ccccc3nc3c(C(=O)Nc4ccc(S(=O)(=O)Nc5ncccn5)cc4)cccc23)cc1`: the TGI was above 25 µM.

As to `O=C1C=CC2(C=C1)C[C@H](NC(=O)C(F)(F)F)C(=O)O2`, the TGI was above 100 µM.

`NC(=O)CO/N=C1/C(c2c(O)[nH]c3ccccc23)=Nc2ccccc21` registered a TGI above 100 µM.

With `CC1(C)OC2C(COS(N)(=O)=O)SC(n3cnc4cncnc43)C2O1` (stereo not given), the GI50 was above 100 µM and the TGI was above 100 µM.

The compound `CC(C)C1(O)C(=O)N(c2c(F)c(F)c(F)c(F)c2F)C(=S)N1CCSc1ccccc1` (stereo not given) showed a TGI of 31.8 µM.

`C/C(CC(=O)N(C(C)C)C(C)C)=N\NC(=O)c1ccncc1` came in with a TGI above 100 µM.

With `O=C(Nc1cccc(NC(=O)c2cc(=O)c3ccccc3o2)n1)c1cc(=O)c2ccccc2o1`, the TGI was above 100 µM.

On to `CC(NC(=O)c1ccccc1)(C(=O)O)C(=O)O`, for which the TGI was above 100 µM.

Compound `NCCC1CN(C(=O)OCc2ccccc2)c2ccccc21` (stereo not given) registered a TGI of 54.3 µM.

Turning to `Cc1ccc(S(=O)(=O)N(CC(O)COc2ccccc2)c2ccc(F)cc2F)cc1` (stereo not given), the TGI was determined as 59.6 µM.

For `COc1c(C)c(C/C=C(\C)CC/C=C(\C)CCC=C(C)C)c(OC)c(OC)c1OC`, the TGI was above 100 µM.

`CCC1CNC(=O)CC1CC(=O)OC` (stereo not given) showed a TGI above 100 µM.

`COC(=O)/C(=N/NC(N)=O)C(C(=O)OC)C(=O)C(=O)Nc1ccc(Cl)cc1` (stereo not given) came in with a TGI above 100 µM.

Regarding `C/C=C1\C(=O)OC2CCN3CCC(COC(=O)C(C)(O)C(C)C1O)C23` (stereo not given), the TGI is above 100 µM.

For the compound `Cc1ccc(S(=O)(=O)n2cc(C#N)c(C#N)c2)cc1`, the TGI was above 100 µM.

As for `Cc1ccc(-c2n[nH]c(=O)n2/N=C\c2ccccc2)cc1`, the TGI was above 100 µM.

Take `C#CCN(Cc1ccc2nc(N)[nH]c(=O)c2c1)c1ccc(C(=O)NC(CCC(=O)O)C(=O)O)cc1` (stereo not given): the TGI was above 100 µM.

The compound `COc1ccc(CCN=C2CCC(C(=O)NCCc3ccc(OC)c(OC)c3)N2)cc1OC` (stereo not given) had a TGI above 100 µM.

In the case of `S=C(NCc1ccccc1)N/N=C/c1ccccn1`, the TGI was above 100 µM.

`Cc1cc([N+](=O)[O-])c(C)c(Br)c1C` gave a TGI above 100 µM.

`COc1cnc2cc(C(=O)O)c3ccccc3c2c1`: the TGI is above 100 µM.

For the compound `CN1CCc2c1nc(-c1ccc([N+](=O)[O-])cc1)c1c2N(C)CC1`, the TGI was above 100 µM.

Compound `O=C(NNCc1ccc(Cl)cc1)Nc1cccc2ccccc12` had a TGI above 100 µM.

For the compound `CC1CC2(C)CC(=O)C1C1C(=O)N(CCN3CCCCC3)C(=O)C12` (stereo not given), the GI50 is above 100 µM and the TGI was above 100 µM.

For the compound `Cc1nc(-n2nc(-c3ccccc3)cc2-c2ccccc2)sc1C(/C=C/c1ccc([N+](=O)[O-])cc1)=N/NC(=O)c1ccncc1`, the TGI was above 100 µM.

`O=C(c1ccco1)N(C(=S)OC12CC3CC(CC(C3)C1)C2)c1ccccc1` registered a TGI above 100 µM.

`O=C1C=CC(=O)c2c(O)c(N3CCN(CCOCCO)CC3)c(Cl)c(O)c21`: the TGI was 3.92 µM [middle of 4 runs].

The compound `C/C(=N\Nc1nc2ccccc2[nH]1)c1cc2ccccc2cn1` showed a TGI of 1.61 µM.

On to `O=C(NCCCCCCCNC(=O)OCc1ccc2c(Cl)cc(Cl)c(O)c2n1)OCc1ccc2c(Cl)cc(Cl)c(O)c2n1`, for which the GI50 was 1.68 µM and the TGI was 3.36 µM.

The compound `Cn1c2ccccc2n2c3ncccc3c(=S)c(C#N)c12` gave a TGI above 100 µM.

For `Oc1[nH]c2cc(Cl)ccc2c1/C=c1/ccc2c(c1)N=C(c1cc(F)cc(F)c1)N=2`, the GI50 is 4.82 µM and the TGI is 24.4 µM.

With `COc1nc(NC2OC(COC(C)=O)C(OC(C)=O)C(OC(C)=O)C2OC(C)=O)c(-c2csc(N)n2)c(=O)n1C` (stereo not given), the TGI was above 100 µM.

Regarding `CC(C)C(=O)Oc1cc2c(=O)oc3c(OC(=O)C(C)C)c(OC(=O)C(C)C)cc4c(=O)oc(c1OC(=O)C(C)C)c2c34`, the TGI is above 100 µM.

On to `COc1cccc(/C=C/C(=O)c2cc3c(N)c(C(=O)Nc4cccc5ccccc45)sc3nc2C)c1`, for which the GI50 is 1.94 µM and the TGI was above 50 µM.

The compound `COc1ccc(C(O)CC(O)(C(F)(F)F)C(F)(F)F)cc1` (stereo not given) gave a TGI above 100 µM.

`CCN(CC)CCN(C(=O)C(C)(C)C)c1ccccc1N` showed a TGI above 100 µM.

With `COc1ccccc1NC(=O)C(CC(C(=O)Nc1ccccc1OC)/C(C)=N/Nc1ccc([N+](=O)[O-])cc1[N+](=O)[O-])/C(C)=N/Nc1ccc([N+](=O)[O-])cc1[N+](=O)[O-]` (stereo not given), the TGI was above 100 µM.

`Cc1[nH]c(=O)[nH]c(=S)c1C(=O)Nc1cccc2cc3ccccc3cc12` displayed a TGI above 100 µM.

For the compound `O=C(CC1Sc2ccccc2NC1=O)Nc1ccc(Cl)cc1` (stereo not given), the TGI is above 100 µM.

`CN(C)c1ccc(/C=C2\N=C(c3ccccc3)N(c3ccc4c(c3)Sc3cc(N5C(=O)/C(=C/c6ccc(N(C)C)cc6)N=C5c5ccccc5)ccc3N4)C2=O)cc1` had a TGI of 30.8 µM.

`CCOc1ccc(C(CN2CCOCC2)C(C)=O)cc1OC` (stereo not given) registered a TGI above 100 µM.

`NC(=O)Cc1nc2c(=O)[nH]cnc2n1C1OC(CO)C(O)C1O` (stereo not given) came in with a TGI above 100 µM.

`Nc1nc(Cl)cc(NCC2(O)CCCC2)n1` showed a TGI above 100 µM.

`Cc1ccccc1OC(C)C(=O)NN1C(=O)CC(=O)N(c2ccccc2)C1=S` (stereo not given): the TGI was above 100 µM.

In the case of `CC(=O)Oc1ccc(/C=N/NC(N)=S)nc1`, the GI50 is 4.96 µM and the TGI was 72.7 µM.

`COc1ccc(CCN2CCc3c(C)c(C#N)c4nc5ccccc5n4c32)cc1OC`: the TGI was above 100 µM.

The compound `C[C@]12CC[C@H](OC3CCCCO3)CC1=CC[C@@H]1C2CC[C@]2(C)/C(=N/O)CCC12` (stereo not given in full) gave a TGI of 65.6 µM.

The compound `COc1ccc(OC)c2c3c(ccc12)C(c1ccccc1)OC3=O` (stereo not given) had a TGI above 100 µM.

`CSc1nc(NC(C)C)c2c(n1)Sc1nc3ccccc3n1C2O` (stereo not given) yielded a TGI above 100 µM.

`CCCCCCCCCCCCCCCCOC(=O)c1cc(O)cc(C(=O)OCCCCCCCCCCCCCCCC)c1` registered a TGI above 100 µM.

In turn, `COc1cccc(NC(=O)C(=O)C(C(C)=O)c2nc3ccc(Cl)cc3[nH]c2=O)c1` (stereo not given) had a TGI above 100 µM.

Regarding `CCOC(=O)[C@H]1Nc2ccccc2C2c3ccccc3CC21` (stereo not given in full), the TGI is above 100 µM.

Compound `C(/Cc1ccc2c(c1)OCO2)=N\NC1=NCCCN1` had a TGI above 100 µM.

In turn, `N/C(=N\Nc1ccc(S(N)(=O)=O)cc1)c1cnccn1` registered a TGI above 100 µM.
